# In all, about 33,000 sequences were measured (“E-score (-0.5 to 0.5)”: median about -0.011, highest 2% from about 0.28 on). Some of the results follow.
# Biological target: T1, Gcr1 (UniProt P07261)
# T1 sequence: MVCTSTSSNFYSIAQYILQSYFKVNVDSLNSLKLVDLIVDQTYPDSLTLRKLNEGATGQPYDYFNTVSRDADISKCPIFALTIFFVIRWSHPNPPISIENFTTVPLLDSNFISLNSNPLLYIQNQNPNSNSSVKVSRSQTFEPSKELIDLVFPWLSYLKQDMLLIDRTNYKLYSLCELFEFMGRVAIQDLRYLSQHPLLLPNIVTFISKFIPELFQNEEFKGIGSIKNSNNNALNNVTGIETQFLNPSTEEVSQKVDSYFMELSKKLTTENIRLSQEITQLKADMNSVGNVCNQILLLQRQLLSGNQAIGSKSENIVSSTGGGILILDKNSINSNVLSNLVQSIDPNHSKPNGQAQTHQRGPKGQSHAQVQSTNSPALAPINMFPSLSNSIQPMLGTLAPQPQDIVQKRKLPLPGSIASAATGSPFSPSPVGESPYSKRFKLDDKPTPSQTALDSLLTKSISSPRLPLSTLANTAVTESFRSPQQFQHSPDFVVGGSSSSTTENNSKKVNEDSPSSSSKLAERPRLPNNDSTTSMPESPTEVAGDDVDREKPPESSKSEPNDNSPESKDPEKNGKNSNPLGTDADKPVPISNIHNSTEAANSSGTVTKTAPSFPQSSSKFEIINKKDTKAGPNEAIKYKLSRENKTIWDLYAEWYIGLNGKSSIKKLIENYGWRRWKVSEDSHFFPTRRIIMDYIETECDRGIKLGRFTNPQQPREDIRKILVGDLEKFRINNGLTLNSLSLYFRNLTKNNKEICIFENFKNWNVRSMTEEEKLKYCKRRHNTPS
# Assay: PBM E-score (8-mer binding enrichment) (E-score (-0.5 to 0.5)); higher = stronger / more preferred TF binding; most listed sequences are background and not binding sites
# Conditions: protein concentration: 100 nM; construct: GST-full length
# Procedure: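 Universal 'all 10-mer' protein binding microarrays (Agilent AMADID 015681) probed with GST-tagged S. cerevisiae TFs (full-length or DBD) made by in vitro transcription/translation (PURExpress), about 100-200 nM. Bound TF was detected with fluorescent anti-GST. Each ungapped 8-mer (which stands for itself and its reverse complement) is scored by the PBM enrichment score (E-score), a modified Wilcoxon-Mann-Whitney statistic from -0.5 to +0.5, computed with the Universal PBM Analysis Suite. Scale: above 0.35 generally sequence-specific binding.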
row,Sequence,PBM E-score
1,AGGCAGCA,0.0795
2,CTCCATTA,0.0245
3,AGCCTACT,-0.108
4,CCTACGCA,-0.223
5,TAACTTGA,-0.156
6,GCCATCAA,-0.22
7,CGTCTTCC,0.204
8,GTTGCCGA,0.225
9,AAGCGTCG,0.0188
10,GACCGAGA,-0.0306
11,AACCTCGC,-0.0987
12,CCCTCCAG,-0.0408
13,ATCGTCCC,0.0583
14,CCCTAAGC,-0.25
15,CAGGGTGA,-0.0254
16,CGTGCGCA,-0.0952
17,CCAACATA,0.0709
18,CAAGTCTG,-0.0376
19,CATGACAC,-0.0867
20,CGATGCTA,0.266
21,ATCTGAAC,0.127
22,ACTTCTGG,0.114
23,CAGCATTC,-0.239
24,AGTCGCTC,-0.131
25,GCCTGCAC,-0.0935

row,Sequence,PBM E-score
1,ACGCGGGA,0.0133
2,ACCAAATA,0.0899
3,CGCCACGA,-0.105
4,ACTTTGTG,-0.132
5,GTTACATA,-0.0972
6,AACGGATG,-0.0376
7,CGTCTACA,0.0544
8,CTCTCATA,-0.128
9,GTTCGGTA,-0.0151
10,TGGCCGAA,-0.084
11,CAGGTAGC,0.163
12,CCTCATCC,-0.0992
13,ACACCGTA,-0.113
14,ACTTCGCA,0.229
15,CCGTAGCG,0.0291
16,ATCATCAC,0.162
17,CTGGGGAA,0.0446
18,AGAACCTC,0.144
19,TAATTGTA,0.164
20,AATATTGA,0.176
21,AAGCATTA,-0.0436
22,CAATGCGC,-0.116
23,TGGGAAAA,-0.0555
24,TCTCAGAA,0.00947
25,TCAAGTGA,-0.0372

row,Sequence,PBM E-score
1,CTACGGGC,0.141
2,GCAAACGC,-0.0923
3,AATATTCG,0.155
4,AGGCCTCG,-0.31
5,AGATGACT,-0.136
6,GACGTGCA,-0.0428
7,CCCTACCC,-0.0215
8,TCCAACAA,0.0707
9,ACTAACAA,0.135
10,TAGTAGGA,0.0257
11,AGGTATAC,-0.101
12,ACCGGGCC,0.00575
13,ACCGACAC,-0.136
14,GCTTTGAC,-0.202
15,GAATTCGC,0.103
16,ATGCTCCA,0.00275
17,CGACGCCG,0.349
18,AAAAGAGG,0.0508
19,CAATCTCG,-0.205
20,GACGTATC,-0.108
21,AAGGACGA,-0.163
22,CCGACCAC,-0.0396
23,GAAAGTGA,0.0212
24,AACCAGAA,0.281
25,AACTCTGA,0.0783

row,Sequence,PBM E-score
1,AGATCTTG,-0.202
2,ACTAGGAC,-0.00928
3,AGCGCAAT,0.0239
4,AAATTACT,0.115
5,CTGAATTA,0.241
6,CTGCTAGC,-0.15
7,CAATATAG,0.103
8,CTGCACTA,-0.145
9,AGGCATAA,-0.157
10,AGTACCGC,-0.0905
11,ATGGTCGG,-0.113
12,ATTGTCTG,-0.22
13,GTGCACAA,-0.0643
14,GGTTTAAA,-0.0771
15,ACGTCGAA,0.0569
16,AAGTCCGT,-0.204
17,CAGAAAGC,-0.0028
18,CAATTCCA,0.0815
19,ACTTTGTA,-0.172
20,CGGCCTAC,-0.111
21,ATCTACAC,-0.0227
22,CCCGATAG,0.0207
23,CTTACTGA,-0.127
24,CGTTATGC,-0.123
25,AGCCACAG,-0.0526

row,Sequence,PBM E-score
1,TCACTGCA,-0.188
2,TAAACGGA,0.129
3,CGATGCTC,0.0296
4,ATGCTGAC,0.0506
5,GAAGTAGA,-0.181
6,ACAAGCAT,0.15
7,ACAAAAAG,0.21
8,CCCCTACC,0.119
9,ATCATTTG,0.0162
10,GGGTAATA,0.0147
11,TGGGTACA,0.00845
12,TAGCGTGA,0.0329
13,AATAAGAT,0.0233
14,ACTTTTAT,0.213
15,CGATACGA,0.011
16,GATATGTA,-0.0283
17,CCCTACTA,0.0892
18,CAGCAAAC,0.0152
19,CGGCTCGC,-0.0257
20,CATTGAAG,-0.12
21,TTAGCGAA,-0.0886
22,ACGGTATC,-0.0774
23,ATCGTGAA,-0.006
24,CAGTAAAA,0.0267
25,CAACAACG,0.00989

row,Sequence,PBM E-score
1,CCTTTAGA,0.103
2,CCGATAGA,0.0663
3,CATCATAA,0.0455
4,CCAGAAAA,0.335
5,CTAATGAC,-0.051
6,CCGTGGTA,-0.241
7,AACGGCCC,-0.139
8,GCAAAATA,0.0557
9,CATGCCCG,-0.216
10,ATCAGTAA,0.178
11,CGCAATGA,0.0652
12,CTTCTTCA,0.0686
13,GGTCGACC,-0.168
14,GCAATAGC,-0.0441
15,GTGCCTAA,-0.117
16,AATGATAT,0.129
17,AGGGACAT,-0.0927
18,GACGGCTA,-0.145
19,ACAGAGTG,-0.011
20,AGAATAAA,0.00766
21,ATGCGTCG,0.108
22,TAAGAATA,0.103
23,CAACAGGG,-0.18
24,AACGGCGG,-0.0539
25,AGCGACCG,-0.0215

row,Sequence,PBM E-score
1,CAAGCACA,-0.0864
2,AATAATTG,0.0775
3,CAAGGTTA,0.0221
4,CAGACCAA,0.0207
5,ACCTCCGC,-0.0164
6,CCGTACGG,-0.162
7,AAAGTATA,-0.0634
8,ACAGTGGG,0.175
9,ATAACGAA,-0.0657
10,CTTGTTCA,0.0893
11,GCGGTACC,0.0358
12,TGCCAGCA,0.125
13,GTCGTGAA,-0.0512
14,TCACAGCA,0.0925
15,AGAAGTAC,-0.0476
16,AAAGTAAT,0.154
17,GAGATCAC,-0.127
18,TGCGCAAA,0.036
19,AACACACA,0.105
20,GAATTAGC,0.0262
21,GAACCCAC,0.185
22,TGTACCAA,-0.171

# — the supplement of paper PMC3334620
